# Laboratory results: article PMC4336329 (PLoS ONE, 2015)
# Hit rate of the full screen: of about 310,000 compounds, about 2,200 (0.71%) showed an effect of 50% or more. The effect is printed as a negative number. Some of the results follow.
# Molecular target: human ether-à-go-go-related gene (hERG) potassium channel (human, UniProt Q12809)
# Assay: primary screen, population patch clamp on CHO cells stably expressing hERG
# Chain of human ether-à-go-go-related gene (hERG) potassium channel (Q12809 whole entry, looked up): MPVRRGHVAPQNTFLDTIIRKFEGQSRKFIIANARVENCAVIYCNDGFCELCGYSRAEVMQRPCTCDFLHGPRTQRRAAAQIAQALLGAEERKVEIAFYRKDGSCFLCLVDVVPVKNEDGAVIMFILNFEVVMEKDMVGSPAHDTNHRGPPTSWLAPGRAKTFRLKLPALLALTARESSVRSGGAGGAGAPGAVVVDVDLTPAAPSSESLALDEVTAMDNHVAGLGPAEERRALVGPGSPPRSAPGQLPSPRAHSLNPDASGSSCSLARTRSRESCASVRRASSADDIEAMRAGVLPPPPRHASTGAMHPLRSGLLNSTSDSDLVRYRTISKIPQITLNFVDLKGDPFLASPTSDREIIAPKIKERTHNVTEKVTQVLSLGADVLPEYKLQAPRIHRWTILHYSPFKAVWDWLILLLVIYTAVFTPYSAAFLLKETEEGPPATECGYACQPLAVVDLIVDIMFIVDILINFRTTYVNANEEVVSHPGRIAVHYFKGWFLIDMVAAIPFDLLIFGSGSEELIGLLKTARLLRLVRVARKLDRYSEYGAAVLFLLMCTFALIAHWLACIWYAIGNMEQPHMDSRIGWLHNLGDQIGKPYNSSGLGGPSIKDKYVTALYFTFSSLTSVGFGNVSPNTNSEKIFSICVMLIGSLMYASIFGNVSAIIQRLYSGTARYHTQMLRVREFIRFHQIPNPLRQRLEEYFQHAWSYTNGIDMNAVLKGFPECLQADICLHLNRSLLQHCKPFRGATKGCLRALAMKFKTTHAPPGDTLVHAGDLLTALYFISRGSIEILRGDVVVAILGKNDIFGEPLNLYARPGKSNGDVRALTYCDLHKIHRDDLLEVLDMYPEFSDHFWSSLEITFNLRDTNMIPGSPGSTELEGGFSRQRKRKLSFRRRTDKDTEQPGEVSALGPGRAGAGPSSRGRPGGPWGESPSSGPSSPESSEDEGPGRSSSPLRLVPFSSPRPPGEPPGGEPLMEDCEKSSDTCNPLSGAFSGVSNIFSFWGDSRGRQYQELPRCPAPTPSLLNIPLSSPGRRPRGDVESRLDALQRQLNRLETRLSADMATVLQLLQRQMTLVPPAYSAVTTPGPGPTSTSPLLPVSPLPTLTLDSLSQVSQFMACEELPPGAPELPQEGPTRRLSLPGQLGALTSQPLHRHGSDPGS
row,Structure (SMILES),"hERG current change (%, negative = inhibition) at 1uM"
1,CCc1cc(=O)oc2cc(OCC(=O)NCCCN3CCOCC3)c(Cl)cc12,24.8%
2,O=C(NCCc1cccnc1)c1cc(COc2ccc(F)cc2Cl)on1,-2.95%
3,COc1cc2c(C(=O)NC3CCCCCC3)cn(C)c(=O)c2cc1OC,13.5%
4,CSCCC(/C(O)=C(\C#N)c1nc2ccccc2[nH]1)N1C(=O)c2ccccc2C1=O (stereo not drawn),5.68%
5,Nc1nc(-c2ccc3c(c2)CCO3)cs1,9.89%
6,COc1ccc(S(=O)(=O)N(C)c2ccc(C(=O)NCc3ccco3)cc2)cc1,11.8%
7,CCOC(=O)Cc1ncccc1C(=O)Nc1ccc(Oc2ccccc2)cc1,8.83%
8,Cc1ccc(C(=O)Oc2csc(=S)n2C(=O)c2ccc(C)cc2)cc1,19.8%
9,O=C1CS/C(=N\N=C\c2ccco2)N1c1ccccc1,11.5%
10,CCc1nc2c(nnn2Cc2ccc(F)cc2)c(=O)[nH]1,1.79%
11,CCOc1ccc(-c2cnc3ccccc3n2)cc1,13.4%
12,CCCCCCCCCc1nc(N)n[nH]1,8.8%
13,Cc1onc(-c2ccccc2Cl)c1C(=O)OCC(=O)N1CCN(c2ccccc2)CC1,0.527%
14,CN(C)S(=O)(=O)c1ccc(N/C=C(\[N+](=O)[O-])S(=O)(=O)c2ccccc2)cc1,21.3%
15,Cn1c(C(=O)N2CCCC(C(=O)N3CCN(C(=O)c4ccco4)CC3)C2)cc2sccc21 (stereo not drawn),0.524%
16,COc1ccc(Cc2nnc(NCCO)[nH]c2=O)cc1OC,13%
17,COc1cc(-c2nnc3sc(Cc4ccccc4)nn23)cc(OC)c1OC,11.6%
18,COC(=O)c1ccc(CSc2nnc(CNC(=O)c3cccs3)o2)o1,8.05%
19,COCCCn1c(=O)/c(=C\c2ccccc2OC(F)F)s/c1=C(/C#N)C(=O)N1CCOCC1,9.19%
20,COc1cc2c(cc1NC(=O)c1cccc(F)c1)CCCC2,9.35%
21,CCC1CCCCN1CCCNC(=O)Cn1c2ccccc2c2nc(=O)cc(C)n21 (stereo not drawn),-2.4%
22,COc1ccccc1C1CCN(Cc2ccccc2)CC1,8.45%
23,CC(=O)c1cccc(OCC(O)CN2CC=C(c3ccccc3)CC2)c1.O=C(O)C(=O)O (stereo not drawn),-50%

row,Structure (SMILES),"hERG current change (%, negative = inhibition) at 1uM"
1,CCOC(=O)C1CCN(C(=O)COC(=O)CNC(=O)c2sc3ccccc3c2Cl)CC1,-3.75%
2,COC(=O)c1c(NC(=O)COC(=O)CCc2ccc(S(=O)(=O)N3CCOCC3)cc2)sc2c1CCC2,7.26%
3,C/C(CC(=O)Nc1cccc(C(F)(F)F)c1)=N\NC(=O)c1ccncc1,15%
4,N#Cc1nc(N2CCOCC2)nc(N2CCOCC2)n1,-12.7%
5,O=C(Nc1nnc(Cc2ccc(Cl)cc2)s1)c1cccs1,-9.63%
6,O=C(Nc1ccc(Cl)cc1)Nn1cnc2ccccc2c1=O,-0.139%
7,Cc1cc2nsnc2c(S(=O)(=O)NCC(=O)O)c1C,3.09%
8,COc1ccc2cc(C#N)c(Cl)nc2c1,20%
9,COc1ccc(-c2c(C)[nH]n3c(=O)c(Cc4ccccc4)c(C)nc23)cc1OC,14.4%
10,O=C(Nc1ccccc1)/C(=C/c1cccnc1)NC(=O)c1ccccc1,9.54%
11,COc1ccc(C(CC(=O)O)NC(=O)COc2ccccc2)cc1 (stereo not drawn),13.4%
12,CC(=O)N1CCN(CC(=O)Nc2ccccc2Sc2ccccc2)CC1,-29.8%
13,Cc1ccccc1CN(c1ccc(C(=O)N2CCN(C)CC2)cc1)S(C)(=O)=O,11.4%
14,COc1cc(/C=N/NC(=O)Cc2ccccc2)cc(OC)c1OC,15.4%
15,O=C1OCCN1C(=O)[C@H]1[C@H](c2ccc(F)cc2)C(c2ccc(F)cc2)=NN1c1ccc(Br)cc1,11.6%
16,Cc1cccc(CN2CCN(Cc3ccc(Cl)cc3)CC2)c1.O=C(O)C(=O)O,1.15%
17,CCN1CCN(C(=O)C2CCCN(S(=O)(=O)c3cccc4nsnc34)C2)CC1 (stereo not drawn),6.38%
18,Cc1ccc(C(=O)Nc2cccc(C(=O)NC3CCCC3)c2)cc1,12%
19,Nc1nnnn1/N=C/C(Br)=C/c1ccccc1,-11%
20,NC(=O)c1cccnc1Nc1cccc(F)c1,3.97%
21,CC(C)CSc1nnc(N)s1,1.88%
22,CCOC(=O)C1=CN(C)C=C(C(=O)OCC)C1c1ccsc1,-19.8%
